{"source": "the supplement of paper PMC8728848", "experiment_in_all_cases": "glycan array binding signal (z-score within array); higher = stronger binding", "conditions_in_all_cases": "glycan notation: IUPAC condensed, linker removed", "key": {"[1]": {"target": "Fuc(a1-2)Gal", "outline": "(§1)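 The Consortium for Functional Glycomics database supplied 3228 glycan arrays, of which those lacking an available protein sequence were dropped. The binding signal, a within-array Z-score, was averaged across arrays of the same protein sequence and across linkers. Negative scores can be read as non-binding.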"}, "[2]": {"target": "Fuc(a1-2)Gal(b1-3)GalNAc", "outline": "as §1"}, "[3]": {"target": "Fuc(a1-2)Gal(b1-3)GalNAc(a1-3)[Fuc(a1-2)]Gal(b1-4)Glc", "outline": "as §1"}, "[4]": {"target": "Fuc(a1-2)Gal(b1-3)GalNAc(a1-3)[Fuc(a1-2)]Gal(b1-4)GlcNAc", "outline": "as §1"}, "[5]": {"target": "Fuc(a1-2)Gal(b1-3)GalNAc(b1-3)Gal", "outline": "as §1"}, "[6]": {"target": "Fuc(a1-2)Gal(b1-3)GalNAc(b1-3)Gal(a1-4)Gal(b1-4)Glc", "outline": "as §1"}, "[7]": {"target": "Fuc(a1-2)Gal(b1-3)GalNAc(b1-4)[Neu5Ac(a2-3)]Gal(b1-4)Glc", "outline": "as §1"}, "[8]": {"target": "Fuc(a1-2)Gal(b1-3)GlcNAc", "outline": "as §1"}, "[9]": {"target": "Fuc(a1-2)Gal(b1-3)GlcNAc(b1-2)Man(a1-3)[Fuc(a1-2)Gal(b1-3)GlcNAc(b1-2)Man(a1-6)]Man(b1-4)GlcNAc(b1-4)GlcNAc", "outline": "as §1"}, "[10]": {"target": "Fuc(a1-2)Gal(b1-3)GlcNAc(b1-2)Man(a1-3)[Fuc(a1-2)Gal(b1-3)GlcNAc(b1-2)Man(a1-6)]Man(b1-4)GlcNAc(b1-4)[Fuc(a1-6)]GlcNAc", "outline": "as §1"}, "[11]": {"target": "Fuc(a1-2)Gal(b1-3)GlcNAc(b1-3)Gal(b1-4)Glc", "outline": "as §1"}, "[12]": {"target": "Fuc(a1-2)Gal(b1-3)GlcNAc(b1-3)GalNAc", "outline": "as §1"}, "[13]": {"target": "Fuc(a1-2)Gal(b1-3)GlcNAc(b1-3)[Fuc(a1-2)Gal(b1-3)GlcNAc(b1-6)]GalNAc", "outline": "as §1"}, "[14]": {"target": "Fuc(a1-2)Gal(b1-3)GlcNAc(b1-3)[Gal(b1-4)GlcNAc(b1-6)]Gal(b1-4)Glc", "outline": "as §1"}, "[15]": {"target": "Fuc(a1-2)Gal(b1-3)GlcNAc(b1-3)[Neu5Ac(a2-6)Gal(b1-4)GlcNAc(b1-6)]Gal(b1-4)Glc", "outline": "as §1"}, "[16]": {"target": "Fuc(a1-2)Gal(b1-3)GlcNAc6S", "outline": "as §1"}, "[17]": {"target": "Fuc(a1-2)Gal(b1-3)[Fuc(a1-4)]GlcNAc", "outline": "as §1"}, "[18]": {"target": "Fuc(a1-2)Gal(b1-3)[Fuc(a1-4)]GlcNAc(b1-2)Man(a1-3)[Fuc(a1-2)Gal(b1-3)[Fuc(a1-4)]GlcNAc(b1-2)Man(a1-3)]Man(b1-4)GlcNAc(b1-4)GlcNAc", "outline": "as §1"}, "[19]": {"target": "Fuc(a1-2)Gal(b1-3)[Fuc(a1-4)]GlcNAc(b1-2)Man(a1-3)[Fuc(a1-2)Gal(b1-3)[Fuc(a1-4)]GlcNAc(b1-2)Man(a1-6)]Man(b1-4)GlcNAc(b1-4)[Fuc(a1-6)]GlcNAc(b1-4)[Fuc(a1-6)]GlcNAc", "outline": "as §1"}, "[20]": {"target": "Fuc(a1-2)Gal(b1-3)[Fuc(a1-4)]GlcNAc(b1-3)[Fuc(a1-3)[Gal(b1-4)]GlcNAc(b1-6)]Gal(b1-4)Glc", "outline": "as §1"}, "[21]": {"target": "Fuc(a1-2)Gal(b1-3)[Fuc(a1-4)]GlcNAc(b1-3)[Gal(b1-4)GlcNAc(b1-6)]Gal(b1-4)Glc", "outline": "as §1"}, "[22]": {"target": "Fuc(a1-2)Gal(b1-4)Fuc(a1-3)]GlcNAc(b1-2)Man(a1-3)[Fuc(a1-2)Gal(b1-4)[Fuc(a1-3)]GlcNAc(b1-2)Man(a1-6)]Man(b1-4)GlcNAc(b1-4)GlcNAc", "outline": "as §1"}, "[23]": {"target": "Fuc(a1-2)Gal(b1-4)Glc", "outline": "as §1"}, "[24]": {"target": "Fuc(a1-2)Gal(b1-4)Glc6S", "outline": "as §1"}, "[25]": {"target": "Fuc(a1-2)Gal(b1-4)GlcNAc", "outline": "as §1"}, "[26]": {"target": "Fuc(a1-2)Gal(b1-4)GlcNAc(b1-2)Man", "outline": "as §1"}, "[27]": {"target": "Fuc(a1-2)Gal(b1-4)GlcNAc(b1-2)Man(a1-3)[Fuc(a1-2)Gal(b1-4)GlcNAc(b1-2)Man(a1-6)]Man(b1-4)GlcNAc(b1-4)GlcNAc", "outline": "as §1"}, "[28]": {"target": "Fuc(a1-2)Gal(b1-4)GlcNAc(b1-2)Man(a1-3)[Fuc(a1-2)Gal(b1-4)GlcNAc(b1-2)Man(a1-6)]Man(b1-4)GlcNAc(b1-4)[Fuc(a1-6)]GlcNAc", "outline": "as §1"}, "[29]": {"target": "Fuc(a1-2)Gal(b1-4)GlcNAc(b1-2)[Fuc(a1-2)Gal(b1-4)GlcNAc(b1-4)]Man(a1-3)[Fuc(a1-2)Gal(b1-4)GlcNAc(b1-2)Man(a1-6)]Man(b1-4)GlcNAc(b1-4)GlcNAc", "outline": "as §1"}, "[30]": {"target": "Fuc(a1-2)Gal(b1-4)GlcNAc(b1-3)Gal(b1-4)GlcNAc", "outline": "as §1"}, "[31]": {"target": "Fuc(a1-2)Gal(b1-4)GlcNAc(b1-3)Gal(b1-4)GlcNAc(b1-2)Man(a1-3)[Fuc(a1-2)Gal(b1-4)GlcNAc(b1-3)Gal(b1-4)GlcNAc(b1-2)Man(a1-6)]Man(b1-4)GlcNAc(b1-4)GlcNAc", "outline": "as §1"}, "[32]": {"target": "Fuc(a1-2)Gal(b1-4)GlcNAc(b1-3)Gal(b1-4)GlcNAc(b1-3)Gal(b1-4)GlcNAc", "outline": "as §1"}, "[33]": {"target": "Fuc(a1-2)Gal(b1-4)GlcNAc(b1-3)GalNAc", "outline": "as §1"}, "[34]": {"target": "Fuc(a1-2)Gal(b1-4)GlcNAc(b1-3)[Fuc(a1-2)Gal(b1-4)GlcNAc(b1-6)]GalNAc", "outline": "as §1"}, "[35]": {"target": "Fuc(a1-2)Gal(b1-4)GlcNAc(b1-3)[Fuc(a1-3)[Gal(b1-4)]GlcNAc(b1-6)]Gal(b1-4)Glc", "outline": "as §1"}, "[36]": {"target": "Fuc(a1-2)Gal(b1-4)GlcNAc(b1-6)GalNAc", "outline": "as §1"}, "[37]": {"target": "Fuc(a1-2)Gal(b1-4)GlcNAc6S", "outline": "as §1"}, "[38]": {"target": "Fuc(a1-2)Gal(b1-4)[Fuc(a1-3)]GlcNAc", "outline": "as §1"}, "[39]": {"target": "Fuc(a1-2)Gal(b1-4)[Fuc(a1-3)]GlcNAc(b1-2)Man(a1-3)[Fuc(a1-2)Gal(b1-4)[Fuc(a1-3)]GlcNAc(b1-2)Man(a1-6)]Man(b1-4)GlcNAc(b1-4)[Fuc(a1-6)]GlcNAc", "outline": "as §1"}, "[40]": {"target": "Fuc(a1-2)Gal(b1-4)[Fuc(a1-3)]GlcNAc(b1-2)[Fuc(a1-2)Gal(b1-4)[Fuc(a1-3)]GlcNAc(b1-4)]Man(a1-3)[Fuc(a1-2)Gal(b1-4)[Fuc(a1-3)]GlcNAc(b1-2)Man(a1-6)]Man(b1-4)GlcNAc(b1-4)GlcNAc", "outline": "as §1"}, "[41]": {"target": "Fuc(a1-2)Gal(b1-4)[Fuc(a1-3)]GlcNAc(b1-3)Gal(b1-4)[Fuc(a1-3)]GlcNAc", "outline": "as §1"}, "[42]": {"target": "Fuc(a1-2)Gal(b1-4)[Fuc(a1-3)]GlcNAc(b1-3)Gal(b1-4)[Fuc(a1-3)]GlcNAc(b1-3)Gal(b1-4)[Fuc(a1-3)]GlcNAc", "outline": "as §1"}, "[43]": {"target": "Fuc(a1-2)Gal(b1-4)[Fuc(a1-3)]GlcNAc(b1-3)GalNAc", "outline": "as §1"}, "[44]": {"target": "Fuc(a1-2)Gal(b1-4)[Fuc(a1-3)]GlcNAc(b1-3)[Neu5Ac(a2-6)Gal(b1-4)GlcNAc(b1-6)]Gal(b1-4)Glc", "outline": "as §1"}, "[45]": {"target": "Fuc(a1-2)Gal3S(b1-4)GlcNAc", "outline": "as §1"}}, "note": "The list shows a part of the results.", "data": [{"binder": "LSL-150 (Laetiporus sulphureus), Q7Z8V1 (protein) MTDIYIPPEGLYFRLLGFASRQVIFARNSPSPDVGLSPVNDQATDQYFSLIYGTGEHAGLYAIKSKATGKVLFSRRPAEPYVGQIDGDGRYPDNWFKIEPGKTYLSKYFRLVQPSTGTALVSRTHLQPYFWNHPQTEVFDDQYFTFLFEDHHHHHH", "values": [{"measurement": "glycan array binding signal (z-score)", "setting": "[1]", "result": -0.212}, {"measurement": "glycan array binding signal (z-score)", "setting": "[2]", "result": -0.206}, {"measurement": "glycan array binding signal (z-score)", "setting": "[3]", "result": -0.208}, {"measurement": "glycan array binding signal (z-score)", "setting": "[4]", "result": -0.208}, {"measurement": "glycan array binding signal (z-score)", "setting": "[5]", "result": -0.209}, {"measurement": "glycan array binding signal (z-score)", "setting": "[6]", "result": -0.214}, {"measurement": "glycan array binding signal (z-score)", "setting": "[7]", "result": -0.2}, {"measurement": "glycan array binding signal (z-score)", "setting": "[8]", "result": -0.201}, {"measurement": "glycan array binding signal (z-score)", "setting": "[9]", "result": -0.195}, {"measurement": "glycan array binding signal (z-score)", "setting": "[10]", "result": -0.202}, {"measurement": "glycan array binding signal (z-score)", "setting": "[11]", "result": -0.205}, {"measurement": "glycan array binding signal (z-score)", "setting": "[12]", "result": -0.209}, {"measurement": "glycan array binding signal (z-score)", "setting": "[13]", "result": -0.197}, {"measurement": "glycan array binding signal (z-score)", "setting": "[14]", "result": -0.19}, {"measurement": "glycan array binding signal (z-score)", "setting": "[15]", "result": -0.2}, {"measurement": "glycan array binding signal (z-score)", "setting": "[16]", "result": -0.196}, {"measurement": "glycan array binding signal (z-score)", "setting": "[17]", "result": -0.213}, {"measurement": "glycan array binding signal (z-score)", "setting": "[18]", "result": -0.191}, {"measurement": "glycan array binding signal (z-score)", "setting": "[19]", "result": -0.2}, {"measurement": "glycan array binding signal (z-score)", "setting": "[20]", "result": -0.213}, {"measurement": "glycan array binding signal (z-score)", "setting": "[21]", "result": -0.203}, {"measurement": "glycan array binding signal (z-score)", "setting": "[22]", "result": -0.201}, {"measurement": "glycan array binding signal (z-score)", "setting": "[23]", "result": -0.211}, {"measurement": "glycan array binding signal (z-score)", "setting": "[24]", "result": -0.195}, {"measurement": "glycan array binding signal (z-score)", "setting": "[25]", "result": -0.209}, {"measurement": "glycan array binding signal (z-score)", "setting": "[26]", "result": -0.193}, {"measurement": "glycan array binding signal (z-score)", "setting": "[27]", "result": -0.206}, {"measurement": "glycan array binding signal (z-score)", "setting": "[28]", "result": -0.202}, {"measurement": "glycan array binding signal (z-score)", "setting": "[29]", "result": -0.212}, {"measurement": "glycan array binding signal (z-score)", "setting": "[30]", "result": -0.173}, {"measurement": "glycan array binding signal (z-score)", "setting": "[31]", "result": -0.103}, {"measurement": "glycan array binding signal (z-score)", "setting": "[32]", "result": 0.832}, {"measurement": "glycan array binding signal (z-score)", "setting": "[33]", "result": -0.197}, {"measurement": "glycan array binding signal (z-score)", "setting": "[34]", "result": -0.206}, {"measurement": "glycan array binding signal (z-score)", "setting": "[35]", "result": -0.2}, {"measurement": "glycan array binding signal (z-score)", "setting": "[36]", "result": -0.198}, {"measurement": "glycan array binding signal (z-score)", "setting": "[37]", "result": -0.202}, {"measurement": "glycan array binding signal (z-score)", "setting": "[38]", "result": -0.204}, {"measurement": "glycan array binding signal (z-score)", "setting": "[39]", "result": -0.208}, {"measurement": "glycan array binding signal (z-score)", "setting": "[40]", "result": -0.208}, {"measurement": "glycan array binding signal (z-score)", "setting": "[41]", "result": -0.21}, {"measurement": "glycan array binding signal (z-score)", "setting": "[42]", "result": -0.198}, {"measurement": "glycan array binding signal (z-score)", "setting": "[43]", "result": -0.201}, {"measurement": "glycan array binding signal (z-score)", "setting": "[44]", "result": -0.204}, {"measurement": "glycan array binding signal (z-score)", "setting": "[45]", "result": -0.205}]}]}
